According to PubChem BioAssay AID1346428 (National Center for Advancing Translational Sciences (NCATS), 2018):
In all, about 48,000 compounds went through this assay and about 1,200 (2.5%) were called active. Inconclusive results (about 2%) are left out.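 How the source made its calls: active means activation of at least 60% and not above a set upper limit (about 1 call in 100 departs from these limits); inconclusive means activation of 40% to 60%, or above that upper limit; inactive means activation under 40%.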 The list shows a part of the results.

target: Probable G-protein coupled receptor 32 (Homo sapiens) (UniProt O75388); assay: qHTS for Agonists of Human Resolvin D1 Receptor DRV1; conditions: CHO-K1 GPR32 beta-arrestin PathHunter luminescence, 90 min; at 76.9 µM; active compounds read high; zero percent set by DMSO-only wells; further: 0% is about no effect
Sequence of UniProt O75388 (O75388 whole entry, looked up): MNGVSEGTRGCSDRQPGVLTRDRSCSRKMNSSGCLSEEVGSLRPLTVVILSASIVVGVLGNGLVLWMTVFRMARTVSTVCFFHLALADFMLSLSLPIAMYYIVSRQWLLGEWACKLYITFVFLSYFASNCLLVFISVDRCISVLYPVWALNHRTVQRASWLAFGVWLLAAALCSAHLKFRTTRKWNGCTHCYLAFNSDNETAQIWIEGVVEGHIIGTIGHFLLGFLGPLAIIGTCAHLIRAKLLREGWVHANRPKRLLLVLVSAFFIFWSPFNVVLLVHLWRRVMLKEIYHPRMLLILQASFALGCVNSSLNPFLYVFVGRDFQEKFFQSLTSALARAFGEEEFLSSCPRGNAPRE
Method in brief: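 Using DMSO wells as EC0, agonist-induced signal was taken as chemiluminescence from beta-Gal reconstituted upon beta-arrestin recruitment to GPR32 in CHO-K1 cells after 90 min compound treatment.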

Structure (SMILES)	activation
CCc1ccc(NCc2cc3cc(OC)c(OC)cc3n(CC(=O)Nc3ccc(F)cc3)c2=O)cc1	inactive: -50.7%
CCC(=O)N1CCc2cc(S(=O)(=O)NC(Cc3ccccc3)C(=O)NCc3cccc(OC)c3)ccc21 (centres undefined)	inactive: -0.715%
COc1ccc(-c2cn3nc(N4CCCC(C(=O)NCCCOC(C)C)C4)sc3n2)cc1 (centres undefined)	inactive: -13.2%
COc1ccc2cc(CNc3ccccc3)c(=O)n(CC(=O)Nc3ccc(C(C)=O)cc3)c2c1	inactive: -16.8%
Cc1ccccc1C(=O)NC(=O)Nc1ccc(-n2nc(C(F)(F)F)cc2C(F)(F)F)cc1	inactive: 17.9%
COc1cccc(CNC(=O)CCn2c(=O)c3cccn3c3cccnc32)c1	inactive: -9.75%
CCCN(CCC)c1cc(C)nc2nc(-c3ccc(Cl)cc3)nn12	inactive: -17.7%
Cc1ccc(C(=O)CSc2nc(-c3ccccc3)nc3c2CCCC3)cc1C	inactive: -5.01%
Cc1cc(Oc2nc3ccccn3c(=O)c2/C=C(\C#N)c2nc3ccccc3s2)ccc1Cl	inactive: 8%
COc1ccc(-c2csc3ncnc(Nc4cccc(F)c4)c23)cc1	inactive: -4%
CC(=O)c1ccc(NC(=O)CC2Sc3ccccc3NC2=O)cc1 (centres undefined)	inactive: 30.5%
CC1=C(C(=O)Nc2ccc(C)cc2C)C(c2cccs2)n2nc(SCc3ccc(Cl)cc3)nc2N1 (centres undefined)	inactive: -5.18%
Cc1ccc(Nc2nc(C(N)=O)c(NC(=O)c3ccccc3Br)s2)cc1	active: 60.9%
Cc1ccc(NC(=O)C2CCN(C(=O)c3cnn(-c4ccccc4)c3-n3cccc3)CC2)cc1Cl	inactive: -15.4%
Cc1nc2nc(NC(=O)C(C)C)[nH]n2c(=O)c1Cc1ccccc1	inactive: 14.3%
Cc1ccc(CSc2nc3cccnc3n2Cc2ccc(C(=O)NCc3cccs3)cc2)cc1	inactive: 1.42%
CCOCCCNC(=O)CN1C(=O)COc2ccc(S(=O)(=O)N3CCOCC3)cc21	inactive: -1.67%
COc1ccc(-c2cc(C(F)(F)F)nc(SCCC(=O)Nc3ccc(F)cc3F)n2)cc1	inactive: -0.954%
CC(=O)O[C@H]1Cc2ccccc2N(C(N)=O)c2ccccc21	inactive: -8.76%
CC(=O)c1ccc(NC(=O)CSc2nnc3c(n2)[nH]c2ccccc23)cc1	inactive: 1.21%
COc1ccc(CNC(=O)c2cc(-c3ccc(OC)c(OC)c3)nc3n[nH]c(-c4ccc(C)cc4)c23)cc1	inactive: -16.2%

Structure (SMILES)	activation
O=C(Nc1ccc(F)cc1F)c1ccc(-n2cnc3cccnc32)cc1	inactive: 1.56%
O=C(CSc1ccc2nc(-c3ccccc3)cn2n1)Nc1ccccc1	inactive: -0.757%
COc1ccc(N(C)C(=O)c2oc(=O)c3ccccc3c2-c2ccc(C)cc2)c(OC)c1	inactive: -12.8%
N#Cc1c(-n2ncnc2-c2ccccc2Cl)sc2c1CCCCC2	inactive: 4.7%
CCOC(=O)c1ccc(O)cc1	inactive: -1.26%
COc1ccc(N2CCN(C(=O)CCCCn3c(=O)[nH]c4ccsc4c3=O)CC2)cc1	inactive: 49.3%
CCOC(=O)c1ccc(N2C(=O)c3n[nH]c(-c4cccs4)c3C2c2cccc(O)c2)cc1 (centres undefined)	inactive: 24%
Clc1ccc(-c2nc3ncccn3c2Nc2ccc3c(c2)OCCO3)cc1	inactive: 7.1%
O=C(CCC1N=C2c3ccccc3N=C(SCc3ccc(F)cc3)N2C1=O)N1CCN(c2ccccc2)CC1 (centres undefined)	inactive: -21.9%
CCOC(=O)C1CCN(C(c2ccc(C)cc2)c2sc3nc(-c4ccco4)nn3c2O)CC1 (centres undefined)	inactive: 4.99%
CCOc1ccc(/C=C(\C#N)C(=O)Nc2sc3c(c2C(=O)OC)CCC3)cc1OC	inactive: 3.47%
Cc1ccc(CNC(=O)CCc2c(C)c3cc4c(C)coc4cc3oc2=O)cc1	inactive: 9.55%
COC(=O)c1c(SCC(=O)Nc2ccccc2C(F)(F)F)[nH]c2ccc(Cl)cc2c1=O	inactive: 33.1%
CC(C)c1ccc(CNC(=O)c2ccc(N3CCCC3)c(NC(=O)NCc3ccc(F)cc3)c2)cc1	inactive: -20.2%
CC1=C(C(=O)Nc2cccc(F)c2)C2(CCCCC2)OC1=O	inactive: -14%
Cc1cccc(Nc2cc(C)nc3nc(-c4ccccc4)nn23)c1	inactive: 17.2%
COc1ccc2nc(N3CCN(C(=O)CS(=O)(=O)c4ccc(C)cc4)CC3)sc2c1	inactive: 36%
COc1ccc(OC)c(N(C)S(=O)(=O)c2ccc3c(c2)NC(=O)CC(=O)N3)c1	inactive: 6.24%
COc1ccc(C)cc1NC1(c2ccccc2)C(=O)c2ccccc2C1=O	inactive: -21.9%
Cc1ccccc1NC(=O)c1sc2nc3n(c(=O)c2c1C)N=C(c1ccccc1)CS3	inactive: -11.1%
CN(C)c1ccc(NC(=O)CC(NCc2cccnc2)C(=O)O)cc1 (centres undefined)	inactive: -7.51%

Structure (SMILES)	activation
O=c1c(-c2cc(-c3ccccc3)nc3c2COc2ccc(Cl)cc2-3)coc2ccccc12	inactive: -3.18%
COc1ccc(-n2ccn3c(CC(C)(C)CC(=O)O)nnc3c2=O)cc1	inactive: 8.15%
Cc1ccc(NC(=O)CCCn2c(=O)c3cccn3c3cccnc32)c(C)c1	inactive: -9.37%
COc1cccc(CNc2sc3c(c2C(=O)Nc2ccc(OC)cc2OC)CCC3)c1	inactive: -10.9%
CCC(Sc1nc2nccnc2c(=O)n1Cc1ccc(Cl)cc1)C(=O)NC1CCCCC1 (centres undefined)	inactive: -12.3%
CCOc1ccc(NC(=O)c2cnn3c2NC(C)=C(C(=O)Nc2ccc(Cl)cc2)C3c2ccc(OC)c(OC)c2)cc1 (centres undefined)	inactive: 1.16%
Cc1ccc(-c2cnc(C3CC3)o2)cc1S(=O)(=O)Nc1ccc(F)cc1Cl	inactive: 17.7%
CC(C)CNC(=O)C(=O)Nc1c2c(nn1-c1ccc(Cl)cc1)CSC2	inactive: -12.3%
Cc1cccc(N2CCN(c3ccc4cc(S(=O)(=O)N5CCC(C)CC5)ccc4n3)CC2C)c1 (centres undefined)	inactive: -13.4%
CC(=O)c1ccc(NC(=O)CSc2nccn2C2CCCC2)cc1	inactive: -9.51%
CCCn1c(=O)c2sccc2n2c(CCCC(=O)N3CCN(c4ccc(OC)cc4)CC3)nnc12	inactive: 7.16%
CC(C)CC(=O)Nc1cccc(-c2cn3cccnc3n2)c1	inactive: 45.2%
COc1ccc(S(=O)(=O)NC(C)(C)CO)cc1-c1nnc2c3ccccc3c(C)nn12	inactive: -19.8%
O=c1c(N2CCN(c3ccc(F)cc3)CC2)csc2ccc(F)cc12	inactive: -49.7%
CCOc1ccc(NC(=O)CSc2nc3ccccc3nc2N2CCOCC2)cc1	inactive: -4.86%
COc1ccc(CNC(=O)c2cc3cccc4c3n2CC(C)S4)cc1 (centres undefined)	inactive: -24%
Cc1nn(-c2cccc(Cl)c2)c2nc(-c3cccnc3)cc(C(F)(F)F)c12	inactive: 0.465%
CC1CCN(S(=O)(=O)c2ccc3nc(Nc4cccc(F)c4)ccc3c2)CC1	inactive: 13.3%
Cc1ccccc1CSc1nc2c([nH]c3ccccc32)c(=O)n1-c1ccccc1	inactive: -13.5%
CCOC(=O)COc1ccc(CC)cc1C(=O)c1ccn2nc(-c3ccc(C)cc3)cc2n1	inactive: -7.76%
CCN(CC)CCNC(=O)CN1C(=O)CSc2ccc(S(=O)(=O)N3CCOCC3)cc21	inactive: -3.19%

Structure (SMILES)	activation
Cc1ccc(/C=C/c2onc(C)c2S(=O)(=O)N2CCC(C(=O)Nc3cccc(C#N)c3)CC2)cc1	inactive: -0.355%
Cc1ccc(-c2nnc(Nc3ccc(F)cc3)c3ccccc23)cc1S(=O)(=O)NC(C)C	inactive: -7.26%
N#Cc1c(C(F)(F)F)cc(-c2cccs2)nc1SCC(=O)Nc1cccc(Br)c1	inactive: -15.4%
Cc1ccc(C(=O)N2CCN(c3ccccc3)CC2)cc1NC(=O)c1nsc2ccccc12	inactive: -13%
O=C(NCCCN1CCN(c2ccccc2F)CC1)c1ccc2nc(Cc3ccccc3)oc2c1	inactive: -20.4%
CCOc1ccc(-c2cc(NC(=O)Nc3ccccc3Cl)c(C(=O)OC)s2)cc1	inactive: -0.679%
CCc1nnc2c(NCc3ccccc3)nc3ccccc3n12	inactive: 10.2%
Cc1ccc(CNC(=O)CN2N=C(c3ccc(C)cc3)CCC2=O)cc1	inactive: -18.2%
CCCN(CCC)CCCNC(=O)Cn1ncn2c(cc3sc(CC)cc32)c1=O	inactive: -2.08%
COc1cc(C(O)C(=O)O)ccc1O (centres undefined)	inactive: 8.08%
CCN(CC)S(=O)(=O)c1ccc2c(c1)c(=O)c(C(=O)N1CCN(c3ccc(OC)cc3)CC1)cn2C	inactive: -3.29%
CCc1ccccc1NC(=O)c1nc2nc(C)cc(C(F)F)n2n1	inactive: -7.22%
CC(C)c1ccc(NC(=O)C2CCCN(S(=O)(=O)c3ccc4[nH]c(=O)oc4c3)C2)cc1 (centres undefined)	inactive: -3.74%
Cc1cccc(-c2nnc(SCC(=O)Nc3ccc(C)c(C)c3)o2)c1	inactive: -6.91%
COc1ccc2cc1Oc1ccc(cc1)C[C@H]1c3c(cc4c(c3Oc3cc5c(cc3OC)CCN(C)[C@@H]5C2)OCO4)CCN1C	inactive: -29.5%
Cn1c(-c2cccc(Br)c2)cnc1NCc1cccc(F)c1	inactive: -9.13%
CCCS(=O)(=O)c1c(S(=O)(=O)CCC)c2cc(C(C)(C)C)ccn2c1C(=O)c1ccc(C)cc1	inactive: 5.3%
COc1cc(SC)ccc1C(=O)N1CCn2c3c(c4cc(C)ccc42)CCCC31 (centres undefined)	inactive: 9.75%
COc1cccc(CN2C(=O)c3ccccc3C2C(=O)NCCc2ccccc2)c1 (centres undefined)	inactive: -12%
CCC(C)NC(=O)c1ccc(Cn2c(=O)c3cccn3c3cccnc32)cc1 (centres undefined)	inactive: -8.69%
COc1ccc(Nc2nnc(-c3cc4cc(Cl)ccc4oc3=O)s2)cc1	inactive: 21.9%
